Measured values reported in PubChem BioAssay AID504845 (National Center for Advancing Translational Sciences (NCATS), 2011).
Hit rate of the full screen: of about 390,000 compounds, about 150 (0.038%) were called active. Inconclusive means that the source gave no clear call. Such entries were picked first, then a sample of the others. The call rests on the fitted dose curve; in most records, active means well fitted inhibition curve with a large enough effect; inconclusive means small, poorly fitted or top-dose-only effect; inactive means no such curve, though single readings can be large or run the other way. A potency beside an inconclusive call is a rough fit, not a confirmed value.

Target: Regulator of G-protein signaling 4 (Homo sapiens) (UniProt P49798)
Test: Inhibitors of Regulator of G Protein Signaling (RGS) 4: qHTS; further: nearly all actives have a fitted effect of over 75% in size
Settings: Transcreener GDP fluorescence polarization, RGS4-accelerated GTP hydrolysis; series mostly up to 114 µM
Summary of the method: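 MLSMR compounds (23 nl, pin-transferred) preincubated 10 min at room temperature with a 500nM (2x) first reagent, then RGS4 at 900nM (2x) plus Transcreener GDP mix added; fluorescence polarization (620/688 nm) read before and after 90 min at 30 °C.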
Potency means the concentration at half of the fitted maximal effect; tags describe the fitted curve by direction and shape.

UniProt P49798, sequence (P49798 whole entry, looked up): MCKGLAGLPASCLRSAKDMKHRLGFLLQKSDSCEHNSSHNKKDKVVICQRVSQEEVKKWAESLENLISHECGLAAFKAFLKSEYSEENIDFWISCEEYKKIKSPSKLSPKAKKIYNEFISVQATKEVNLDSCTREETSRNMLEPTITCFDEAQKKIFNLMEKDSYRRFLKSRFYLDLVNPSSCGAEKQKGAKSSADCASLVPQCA

Structure (SMILES)	Potency
Cc1cc([N+](=O)[O-])nn1CC(=O)NNC(=S)Nc1ccc(Cl)cc1	inconclusive: 17.8 µM [inhibitor, full curve, poor fit]
O=C(NNC(=S)Nc1ccc(C(=O)O)c(O)c1)c1ccncc1	inconclusive: 44.7 µM [inhibitor, partial curve, poor fit]
CCOC(=O)c1sc2nc(CC(=O)OC)nc(NCc3ccco3)c2c1C	inconclusive: 79.4 µM [inhibitor, partial curve, poor fit]
CCOc1ccc2nc(S(N)(=O)=O)sc2c1	inactive
CCCOc1ccc(C(=O)Nc2ccc(S(=O)(=O)NC3=NCCCCC3)cc2)cc1	inconclusive: 89.1 µM [inhibitor, single point]
CCn1c(O)c(C=Nc2ccccc2)oc1=S	inconclusive: 44.7 µM [inhibitor, partial curve, poor fit]
CC(/C=N/n1c(-c2cc(C)[nH]n2)n[nH]c1=S)=C\c1ccccc1	inconclusive: 11.2 µM [inhibitor, full curve, poor fit]
COc1ccc(C(=O)/C=C/c2cccc(OCc3ccccc3)c2)cc1CSCC(=O)O	inconclusive: 50.1 µM [inhibitor, partial curve, poor fit]
CC(C)(C)Cc1nnc(NC(=O)CN2C(=O)c3ccccc3C2=O)s1	inconclusive: 39.8 µM [inhibitor, partial curve, poor fit]
Cc1c(/C(O)=C2/C(=O)C(=O)N(CCN3CCOCC3)C2c2ccccn2)cnn1-c1ccccc1 (stereo not given)	inconclusive: 79.4 µM [inhibitor, partial curve, poor fit]
Cn1nnnc1Sc1ncnc2scc(-c3cccc(Br)c3)c12	inactive
CC(=O)N1CCN(c2ccc(NCc3ccc(-c4cccc(Cl)c4)o3)cc2)CC1	inconclusive: 79.4 µM [inhibitor, partial curve, poor fit]
O=C(CCS(=O)(=O)c1ccccc1)N(Cc1cccnc1)c1nc2c(Cl)cccc2s1	inconclusive: 79.4 µM [inhibitor, partial curve, poor fit]
CCN1CCN(C(c2ccc(C(F)(F)F)cc2)c2ccc3cccnc3c2O)CC1 (stereo not given)	inconclusive: 79.4 µM [inhibitor, partial curve, poor fit]
O=C(CCS(=O)(=O)c1ccc(F)cc1)Nc1nc(-c2ccncc2)cs1	inconclusive: 44.7 µM [inhibitor, partial curve, poor fit]
CCc1cc2c(=O)[nH]c(-c3ccccn3)nc2s1	inconclusive: 44.7 µM [inhibitor, partial curve, poor fit]
COc1ccc(C(=O)N/N=C/c2ccc(OC(=O)c3cccc4ccccc34)c([N+](=O)[O-])c2)cc1	inconclusive: 17.8 µM [inhibitor, full curve, poor fit]
COc1cc(/C=C2\SC(=Nc3ccccc3)N(CCc3c[nH]c4ccccc34)C2=O)ccc1OC(C)C(=O)O (stereo not given)	inconclusive: 79.4 µM [inhibitor, partial curve, poor fit]
O=S1(=O)N=C(N(CCO)/N=C/c2ccccc2)c2ccccc21	inconclusive: 31.6 µM [inhibitor, full curve, poor fit]
COCCn1c(C)cc(C2=NNC(=Nc3ccccc3)SC2)c1C	inconclusive: 50.1 µM [inhibitor, partial curve, poor fit]
Cc1ccccc1-n1nc(-c2ccc(N)cc2)cc1N	inconclusive: 79.4 µM [inhibitor, partial curve, poor fit]
O=C(Cn1sc2ccccc2c1=O)NC12CC3CC(CC(C3)C1)C2	inconclusive: 56.2 µM [inhibitor, partial curve, poor fit]

Structure (SMILES)	Potency
CC1CCC(C(C)C)C(OC(=O)Cn2c(-c3ccccc3)[n+](C)c3ccccc32)C1 (stereo not given)	inactive
COc1ccc(NC(=S)c2ccc3ccccc3n2)cc1	inconclusive: 8.91 µM [inhibitor, full curve, poor fit]
[O-]/[N+](=C\c1ccco1)c1ccc(Cl)cc1	inconclusive: 50.1 µM [inhibitor, partial curve, poor fit]
COc1cc(C(c2c(C)[nH][nH]c2=O)c2c(C)[nH][nH]c2=O)cc([N+](=O)[O-])c1O	inconclusive: 50.1 µM [inhibitor, partial curve, poor fit]
O=c1cc(-c2ccc(O)cc2)oc2c(O)c(O)c(O)c(O)c12	inactive
C/C(=N\NS(=O)(=O)c1ccc([N+](=O)[O-])cc1)c1cccs1	inconclusive: 44.7 µM [inhibitor, partial curve, poor fit]
CCCCC1=CC2=C(c3ccco3)C(=O)C(C)(OC(=O)c3ccc(OC)cc3)C(=O)C2=CN1C1CCCCC1 (stereo not given)	inconclusive: 17.8 µM [inhibitor, full curve, poor fit]
O=S(=O)(c1ccccc1)N1CCC(O)(CSc2ccc(F)cc2)CC1	inactive
Cc1ccc(/C=N/n2c(-c3ccncc3)n[nH]c2=S)s1	inconclusive: 112 µM [inhibitor, partial curve, poor fit]
COC(=O)CCC(=O)NNC(=O)c1ccc(Br)cc1	inconclusive: 89.1 µM [inhibitor, single point]
Cc1ccc(C)c(NC(=O)C(OC(=O)c2cnc(C)cn2)c2ccccc2)c1 (stereo not given)	inactive
CCOC(=O)c1ccc2c(c1)C1C=CCC1C(C(=O)OCC)N2 (stereo not given)	inconclusive: 89.1 µM [inhibitor, single point]
CCOC(=O)c1cc(-c2ccccc2)sc1NC(=O)c1ccc(OC)cc1	inconclusive: 79.4 µM [inhibitor, partial curve, poor fit]
C=C[C@@]1(C)CC(=O)[C@@]2(O)[C@@]3(C)[C@@H](O)CCC(C)(C)[C@@H]3[C@H](OC(=O)CCN(C)C)[C@H](OC(C)=O)[C@@]2(C)O1	active: 8.44 µM
CC(C)c1ccc2nc3sc(C(=O)N4CCc5ccccc5C4)c(N)c3cc2c1	inactive
CC(O/N=C/c1ccccc1OC(F)F)C(=O)Nc1cccc(S(=O)(=O)N2CCOCC2)c1 (stereo not given)	inactive
O=C1C(CO)C(CO)C(CO)C1CO (stereo not given)	inactive
CC1=C([N+](=O)[O-])C(c2ccccc2)C2=C(N1)c1ccccc1C2=O (stereo not given)	inconclusive: 89.1 µM [inhibitor, partial curve, poor fit]
CCn1c(C(=O)NC2CCC(C)CC2)cc2sccc21 (stereo not given)	inactive
COc1ccc(OCCn2c(CCNC(=O)C3CCCCC3)nc3ccccc32)cc1	inactive
COc1ccc(OC)c(CCNC(=O)CCc2cn(C)c3ccccc23)c1	inactive
Cn1nc(Oc2ncc(C(F)(F)F)cc2Cl)cc1C(F)(F)F	inconclusive: 44.7 µM [inhibitor, partial curve, poor fit]

Structure (SMILES)	Potency
COc1ccc(/C(C)=N/Nc2ccccc2Cl)c(O)c1	inconclusive: 79.4 µM [inhibitor, partial curve, poor fit]
CC[C@]12c3[nH]c4ccc(OC)cc4c3CCN1C(=O)C(CC(=O)NCc1cccc(C(F)(F)F)c1)C[C@@H]2C(=O)N1CCN(C(=O)c2ccco2)CC1 (stereo not given in full)	inactive
Cc1ccc(-c2cc(C(=O)NCC(c3ccccc3)N(C)C)c3ccccc3n2)o1 (stereo not given)	inactive
O=C(NCCCN1CCCCCC1)C(c1ccccc1)C1CCCCC1 (stereo not given)	inconclusive: 0.532 µM [inhibitor, partial curve, poor fit]
CCCc1cc2c(-c3ccccc3)cc(=O)oc2cc1OCc1ccc(C(=O)O)o1	inconclusive: 50.1 µM [inhibitor, partial curve, poor fit]
Cc1ccc(S(=O)(=O)N2CCCC(C(=O)O)C2)s1 (stereo not given)	inconclusive: 89.1 µM [inhibitor, single point]
O=S(=O)(Nc1cc(S(=O)(=O)N2CCOCC2)ccc1NCC1CCCO1)c1ccc(F)cc1 (stereo not given)	inconclusive: 89.1 µM [inhibitor, single point]
O=C(NCCN1CCOCC1)C1(C(F)(F)F)C/C(=C/CCO)CCCO1 (stereo not given)	inactive
Cc1ccc(C2=CC(c3ccc(N(C)C)cc3)n3nnnc3N2)cc1 (stereo not given)	inactive
O=C1C(C2=C(O)c3ccccc3C2=O)=Nc2ccccc21	inconclusive: 89.1 µM [inhibitor, partial curve, poor fit]
COc1ccc2nc(NC(=S)N(C)C)sc2c1	inconclusive: 112 µM [inhibitor, partial curve, poor fit]
Cc1n[nH]c(C)c1Sc1ccccc1[N+](=O)[O-]	inactive
COc1cccc(CN(C)CC(=O)Nc2cc(S(=O)(=O)N3CCCC3)ccc2Cl)c1OC	inactive
CCN(CC)CCNC(=O)C1c2cc(OC)c(OC)cc2C(=O)N(C)C1c1cccs1 (stereo not given)	inactive
COc1cc(C2Nc3cccc4cccc(c34)N2)cc(OC)c1OC(C)=O	inconclusive: 50.1 µM [inhibitor, partial curve, poor fit]
COc1ccc2cc3cc(C(=O)NCCc4ccc(OC)c(OC)c4)oc3nc2c1	inconclusive: 50.1 µM [inhibitor, partial curve, poor fit]
c1ccc2c(c1)nnn2-c1ncnc2sc3c(c12)CCCC3	inactive
Cc1cc(NC(=O)C2CCCC2)n(-c2nc3ccccc3[nH]2)n1	inactive
CN1/C(=C\C(=O)COC(=O)c2ccc(O)c(O)c2)C(C)(C)c2ccccc21	inactive
N#CC1=C(N)N(c2ccc(F)cc2)C2=C(C1c1ccc(O)cc1)S(=O)(=O)CC2 (stereo not given)	inconclusive: 28.2 µM [inhibitor, full curve, poor fit]
Cc1ccc(-c2ccc(=O)n(CC(=O)NCc3ccc(F)cc3)n2)cc1	inconclusive: 17.8 µM [inhibitor, partial curve, poor fit]
